Paper PMC9769921, “Characteristics of the GlnH and GlnX Signal Transduction Proteins Controlling PknG-Mediated Phosphorylation of OdhI and 2-Oxoglutarate Dehydrogenase Activity in Corynebacterium glutamicum” (Microbiology Spectrum, 2022)

Tested on: lipoprotein signal peptidase LspA (GlnH signal peptide cleavage)
Assay: Western blot of Strep-tagged GlnH after globomycin addition (lipoprotein maturation)
Details: 50 μg/mL globomycin, C. glutamicum ΔglnH/pAN6-glnH, samples 1 h, 2 h, 3 h after addition
Protocol: C. glutamicum ΔglnH/pAN6-glnH, which encodes a C-terminally Strep-tagged GlnH, was cultivated in CGXII-glucose medium supplemented with 1 mM IPTG (isopropyl-β-D-thiogalactopyranoside) and 50 μg/mL globomycin to prevent lipoprotein maturation. Crude extracts of samples taken before and hourly after globomycin addition were analyzed by Western blot analysis with StrepTactin-alkaline phosphatase conjugate. […] This enlarged variant presumably represents the diacylglyceryl prolipoprotein form of GlnH still containing the signal peptide. Further support for this interpretation was obtained by Western blot analysis of the strain C. glutamicum ΔglnH/pAN6-glnH-C27A, in which C27 was changed to alanine, thereby preventing thiol modification of C27 and cleavage of the signal peptide. In this case, only the GlnH prolipoprotein was detected (Fig. 5C).
To analyze if GlnH is a lipoprotein, the C. glutamicum strains ΔglnH/pAN6-glnH and ΔglnH/pAN6-glnH-C27A were cultivated in CGXII medium with 4% (wt/vol) glucose and 1 mM IPTG to induce target gene expression. […] Crude cell extract samples (10 μg protein) taken prior to addition of globomycin and 1 h, 2 h, and 3 h thereafter were analyzed by Western blotting using a Strep-Tactin-horseradish peroxidase (HRP) conjugate (IBA Lifesciences, Göttingen, Germany) to detect Strep-tagged GlnH.

CCCCCCC1OC(=O)CNC(=O)C(C(C)O)NC(=O)C(CO)NC(=O)C(C(C)CC)NC(=O)C(CC(C)C)N(C)C(=O)C1C (stereo not shown) [globomycin]
effect on GlnH maturation (Western blot): a GlnH variant with a larger apparent mass became increasingly visible
